Reference: paper PMC5834211
Results are given in words; binding and its absence hold for the method and conditions named. Binding seen in cells or lysates may run through a third protein. Some entries that bind do so weakly or less than the wild type. For some assays here: Where a sequence is shown, tags or fusion partners need not be part of it.

Tests used:
[1] = molecular target: T1, Flag-MDA5 (full-length, FL-MDA5) (UniProt Q9BYX4); assay: co-IP; 293T cells cotransfected; whole cell lysates immunoprecipitated with anti-Flag beads, immunoblotted with anti-HA and anti-Flag (S5A, Fig 5I, S6A); in S5E with 20 ng Flag-MDA5 and intracellular HMW Poly(I:C) at the indicated time points
T1 sequence: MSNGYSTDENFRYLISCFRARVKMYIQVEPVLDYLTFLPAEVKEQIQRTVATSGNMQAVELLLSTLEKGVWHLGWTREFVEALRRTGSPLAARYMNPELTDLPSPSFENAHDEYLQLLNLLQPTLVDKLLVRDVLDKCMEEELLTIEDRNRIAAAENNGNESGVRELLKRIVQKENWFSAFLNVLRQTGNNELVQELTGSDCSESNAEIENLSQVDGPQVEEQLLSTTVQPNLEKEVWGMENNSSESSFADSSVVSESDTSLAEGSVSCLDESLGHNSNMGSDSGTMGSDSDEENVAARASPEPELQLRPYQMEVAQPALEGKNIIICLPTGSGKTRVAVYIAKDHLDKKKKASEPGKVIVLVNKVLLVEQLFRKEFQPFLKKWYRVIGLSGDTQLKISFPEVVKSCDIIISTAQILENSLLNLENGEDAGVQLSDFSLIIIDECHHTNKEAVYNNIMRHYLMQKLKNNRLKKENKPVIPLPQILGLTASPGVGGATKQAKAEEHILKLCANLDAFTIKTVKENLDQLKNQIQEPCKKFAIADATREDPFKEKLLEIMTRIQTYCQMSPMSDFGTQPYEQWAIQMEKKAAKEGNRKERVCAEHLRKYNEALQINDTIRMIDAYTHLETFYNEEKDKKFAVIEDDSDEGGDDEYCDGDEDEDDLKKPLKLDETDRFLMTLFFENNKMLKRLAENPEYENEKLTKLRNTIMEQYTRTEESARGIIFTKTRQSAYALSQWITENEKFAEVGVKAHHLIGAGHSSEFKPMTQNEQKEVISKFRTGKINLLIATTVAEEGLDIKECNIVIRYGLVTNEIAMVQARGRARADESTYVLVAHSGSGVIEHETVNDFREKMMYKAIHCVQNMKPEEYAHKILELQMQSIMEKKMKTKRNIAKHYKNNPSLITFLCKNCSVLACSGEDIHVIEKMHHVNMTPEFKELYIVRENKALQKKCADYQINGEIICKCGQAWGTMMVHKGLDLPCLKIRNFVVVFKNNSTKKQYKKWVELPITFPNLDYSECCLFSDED

[2] = molecular target: T2, mDHX29 stably transfected in MEFs (mouse) (UniProt Q6PGC1); assay: co-IP; DHX29 stably transfected (mDHX29) MEFs stimulated with HMW Poly(I:C) at the indicated time points; immunoprecipitation with anti-Flag beads, immunoblot with anti-MDA5
T2 sequence: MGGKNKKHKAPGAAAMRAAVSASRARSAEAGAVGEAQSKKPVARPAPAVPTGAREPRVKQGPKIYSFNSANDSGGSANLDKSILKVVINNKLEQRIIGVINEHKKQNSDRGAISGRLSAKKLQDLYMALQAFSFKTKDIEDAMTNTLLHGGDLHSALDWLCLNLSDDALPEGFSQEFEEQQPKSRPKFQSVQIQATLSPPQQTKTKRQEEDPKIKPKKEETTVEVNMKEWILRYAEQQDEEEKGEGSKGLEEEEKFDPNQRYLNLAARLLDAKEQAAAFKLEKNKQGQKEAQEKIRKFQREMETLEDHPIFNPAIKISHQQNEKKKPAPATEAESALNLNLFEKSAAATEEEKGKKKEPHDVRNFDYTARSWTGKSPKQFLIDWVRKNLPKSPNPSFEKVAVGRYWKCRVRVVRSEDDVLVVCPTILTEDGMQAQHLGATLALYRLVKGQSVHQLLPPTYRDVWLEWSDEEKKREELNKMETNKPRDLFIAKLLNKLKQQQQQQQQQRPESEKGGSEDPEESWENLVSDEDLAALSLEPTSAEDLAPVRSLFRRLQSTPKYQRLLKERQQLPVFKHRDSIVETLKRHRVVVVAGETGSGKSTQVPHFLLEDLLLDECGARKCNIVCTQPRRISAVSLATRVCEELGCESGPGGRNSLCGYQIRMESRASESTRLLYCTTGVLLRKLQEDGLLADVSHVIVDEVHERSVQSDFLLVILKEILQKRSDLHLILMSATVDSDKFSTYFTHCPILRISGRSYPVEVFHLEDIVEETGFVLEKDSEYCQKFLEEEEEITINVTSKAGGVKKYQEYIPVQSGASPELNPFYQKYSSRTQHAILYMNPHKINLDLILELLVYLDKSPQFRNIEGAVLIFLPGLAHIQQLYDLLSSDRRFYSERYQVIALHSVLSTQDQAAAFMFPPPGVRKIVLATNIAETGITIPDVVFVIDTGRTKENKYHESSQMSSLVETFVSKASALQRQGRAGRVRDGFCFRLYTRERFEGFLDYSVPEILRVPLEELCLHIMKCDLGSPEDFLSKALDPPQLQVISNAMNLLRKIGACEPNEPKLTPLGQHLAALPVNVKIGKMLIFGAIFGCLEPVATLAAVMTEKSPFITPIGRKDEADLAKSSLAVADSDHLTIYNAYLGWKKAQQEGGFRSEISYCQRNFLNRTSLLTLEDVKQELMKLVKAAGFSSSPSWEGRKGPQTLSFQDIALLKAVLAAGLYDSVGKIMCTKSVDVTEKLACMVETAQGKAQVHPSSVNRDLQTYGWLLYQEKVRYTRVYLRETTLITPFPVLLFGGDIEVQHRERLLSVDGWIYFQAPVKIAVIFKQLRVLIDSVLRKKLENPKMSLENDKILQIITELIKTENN

| Binder | binding [1] | binding [2] |
| --- | --- | --- |
| HA-DHX29a [1-530 aa] (domain or fragment, UniProt Q7Z478 1-530) MGGKNKKHKAPAAAVVRAAVSASRAKSAEAGIAGEAQSKKPVSRPATAAAAAAGSREPRVKQGPKIYSFNSTNDSSGPANLDKSILKVVINNKLEQRIIGVINEHKKQNNDKGMISGRLTAKKLQDLYMALQAFSFKTKDIEDAMTNTLLYGGDLHSALDWLCLNLSDDALPEGFSQEFEEQQPKSRPKFQSPQIQATISPPLQPKTKTYEEDPKSKPKKEEKNMEVNMKEWILRYAEQQNEEEKNENSKSLEEEEKFDPNERYLHLAAKLLDAKEQAATFKLEKNKQGQKEAQEKIRKFQREMETLEDHPVFNPAMKISHQQNERKKPPVATEGESALNFNLFEKSAAATEEEKDKKKEPHDVRNFDYTARSWTGKSPKQFLIDWVRKNLPKSPNPSFEKVPVGRYWKCRVRVIKSEDDVLVVCPTILTEDGMQAQHLGATLALYRLVKGQSVHQLLPPTYRDVWLEWSDAEKKREELNKMETNKPRDLFIAKLLNKLKQQQQQQQQHSENKRENSEDPEESWENLVSD | binds |  |
| endogenous MDA5 (MEFs) (protein, UniProt Q8R5F7 1-1025) MSIVCSAEDSFRNLILFFRPRLKMYIQVEPVLDHLIFLSAETKEQILKKINTCGNTSAAELLLSTLEQGQWPLGWTQMFVEALEHSGNPLAARYVKPTLTDLPSPSSETAHDECLHLLTLLQPTLVDKLLINDVLDTCFEKGLLTVEDRNRISAAGNSGNESGVRELLRRIVQKENWFSTFLDVLRQTGNDALFQELTGGGCPEDNTDLANSSHRDGPAANECLLPAVDESSLETEAWNVDDILPEASCTDSSVTTESDTSLAEGSVSCFDESLGHNSNMGRDSGTMGSDSDESVIQTKRVSPEPELQLRPYQMEVAQPALDGKNIIICLPTGSGKTRVAVYITKDHLDKKKQASESGKVIVLVNKVMLAEQLFRKEFNPYLKKWYRIIGLSGDTQLKISFPEVVKSYDVIISTAQILENSLLNLESGDDDGVQLSDFSLIIIDECHHTNKEAVYNNIMRRYLKQKLRNNDLKKQNKPAIPLPQILGLTASPGVGAAKKQSEAEKHILNICANLDAFTIKTVKENLGQLKHQIKEPCKKFVIADDTRENPFKEKLLEIMASIQTYCQKSPMSDFGTQHYEQWAIQMEKKAAKDGNRKDRVCAEHLRKYNEALQINDTIRMIDAYSHLETFYTDEKEKKFAVLNDSDKSDDEASSCNDQLKGDVKKSLKLDETDEFLMNLFFDNKKMLKKLAENPKYENEKLIKLRNTILEQFTRSEESSRGIIFTKTRQSTYALSQWIMENAKFAEVGVKAHHLIGAGHSSEVKPMTQTEQKEVISKFRTGEINLLIATTVAEEGLDIKECNIVIRYGLVTNEIAMVQARGRARADESTYVLVTSSGSGVTEREIVNDFREKMMYKAINRVQNMKPEEYAHKILELQVQSILEKKMKVKRSIAKQYNDNPSLITLLCKNCSMLVCSGENIHVIEKMHHVNMTPEFKGLYIVRENKALQKKFADYQTNGEIICKCGQAWGTMMVHKGLDLPCLKIRNFVVNFKNNSPKKQYKKWVELPIRFPDLDYSEYCLYSDED |  | binds |
